# In publication PMC12040169 (PLOS Biology, 2025):
# This is one part of the list.
# System: T1, C. trachomatis L2/434/Bu expressing GFP (CTL2-GFP)
# T1 construct: L2/434/Bu GFP intracellular growth in HeLa cells
# Set-up: species or system HeLa; C. trachomatis total inclusion area by high-content imaging, normalised to DMSO
# Conditions: total inclusion area; 28.5 h, 10 µM; inhibitor
# How it was run: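 Following bulk GFP and resorufin fluorescence reads, infected cells were fixed, Hoechst-stained and imaged on a high-content platform. Inclusion total area and number per well served as growth proxies; nuclei counts indicated host viability. MICs were derived as for the fluorescence assay.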
row,SMILES,% of control remaining
1,CC(C)(C)OC(=O)N1CCN(CCOc2ccc(NC(=O)OCc3ccccc3)cc2F)CC1 [CBK016854],75.4737
2,Nc1ncc(-c2cccc(C(F)(F)F)c2)c2cccnc12 [CBK067590],94.3275
3,Cc1ccc(S(=O)(=O)CC(=O)N2CCN(C(=O)c3ccco3)CC2)cc1 [CBK144469],85.5757
4,CCN(CC(=O)NCc1ccccn1)S(=O)(=O)c1ccccc1 [CBK269546],88.9119
5,Cc1cc2c(N3CCCC(NS(C)(=O)=O)C3)nccc2o1 (stereo not drawn) [CBK306464],85.4088
6,Cc1nn2c(N)ncnc2c1-c1ccc(Cl)cc1 [CBK287880],58.8797
7,COc1cccc(CN2CCN(C(=O)Cc3cccs3)[C@@H](C)C2)c1 [CBK285487],99.8852
8,Cc1noc(C)c1C(=O)N1CCn2cc(C(F)(F)F)nc2C1 [CBK282431],100.052
9,O=C(CSc1nc2sc3c(c2c(=O)n1-c1ccccc1)CCCC3)NCCc1ccccc1 [CBK263280],95.6944
10,Cn1c(=O)n(CCN2CCOCC2)c(=O)c2c1nc1n2CCN1c1ccc(Oc2ccccc2)cc1 [CBK269202],101.003
11,O=c1[nH]c2ncc(-c3ccsc3)nc2n1C1CCCCC1 [CBK064574],94.4985
12,O=C(NCc1ccco1)c1cccc(Oc2ccccc2)c1 [CBK270333],103.491
13,Cc1ccc2c(c1)cc(C(=O)N(C)CC1(C)COC1)n2C [CBK281723],84.4162
14,FC(F)(F)c1[nH]c2ncccc2c1CN1CCN2CCCCC2C1 (stereo not drawn) [CBK285355],86.4341
15,O=C(O)CCN1C(=O)c2ccc(NC(=O)CCc3ccccc3)cc2C1=O [CBK266422],124.07
16,CC(=O)Nc1ccc(NS(=O)(=O)c2ccc(C)c(C(=O)O)c2)cc1 [CBK295162],111.327
17,O=C(COc1cccc(Cl)c1)NCCc1ccc(S(=O)(=O)NC(=O)NC2CCCCC2)cc1 [CBK011798],104.894
18,CC(C)(C)c1ccc(C(O)CN2CCC(O)(c3ccc4c(c3)OCO4)CC2)cc1 (stereo not drawn) [CBK286336],83.627
19,Cc1cnc2[nH]c(C3CC3)c(CN3CC(C)OC(C)C3)c2c1 (stereo not drawn) [CBK284741],94.2469
20,Cn1ccnc1C1(O)CC2CCC(C1)N2C(=O)c1ccccc1Cl (stereo not drawn) [CBK284090],113.591
21,Cc1ccc2[nH]c3c(c2c1)CCOC31CCN(CCOc2cccc3c2CCCC3=O)CC1 [CBK040230],62.4158
22,CC(C)Nc1cc(Cl)ncn1 [CBK081511],84.4015
23,COc1ccc(-c2cnn(-c3ccc(OC)cc3)n2)cc1 [CBK112745],94.9723
24,Cc1c(-c2cncn2C(C)CN2CCOCC2)[nH]c2ccccc12 (stereo not drawn) [CBK281795],78.4225
25,COc1ccc(-c2nc(-c3cc4ccccc4o3)cnc2N)cc1OC [CBK064099],38.0358
26,Cc1ccc(-c2oncc2C(=O)NCc2cccs2)cc1 [CBK153679],112.109

row,SMILES,% of control remaining
1,CN(C)CCNC(=O)C1CCN(c2nc3c(-c4ccccc4F)csc3c(=O)[nH]2)CC1 [CBK215437],91.125
2,Cc1ccc(CN(CCCn2ccnc2)Cc2cncn2C)s1 [CBK283106],95.5962
3,O=C(NC(c1ccccc1)c1ccccc1)N1CCN(CCc2ccccc2)CC1 [CBK158905],72.5439
4,O=C1CC2(CCN(C(=O)c3ccoc3)CC2)Oc2ccc3ccccc3c21 [CBK156444],77.4833
5,C[N+](C)(C)c1ccc(C(=O)O)cc1 [CBK260929B],87.2739
6,C[C@@H]1CN(C(=O)c2cc3c(C(=O)OC(C)(C)C)ncn3c3ccc(Cl)cc23)C[C@H](C)N1 [CBK016744],37.2797
7,COc1ccc(OC)c(-c2cc(C(=O)O)c(C)s2)c1 [CBK049922],39.9493
8,CCOC(=O)C1CCCCN1S(=O)(=O)c1ccc(Br)s1 (stereo not drawn) [CBK096110],74.4725
9,O=C([C@H]1O[C@H](CCN2CCN(c3ccccc3)CC2)CC[C@@H]1O)N1CCOCC1 [CBK288724],91.3278
10,CC(C)Nc1nccnc1Sc1nc[nH]n1 [CBK115205],88.0343
11,O=C(Cc1ccccc1C(=O)O)Nc1ccc(-n2cncn2)c(Cl)c1 [CBK286756],41.6205
12,O=C(CCN1C(=O)c2cc(Cl)c(Cl)cc2C1=O)Nc1cccc(-c2cnc3ccccc3n2)c1 [CBK268575],90.877
13,COc1ccc(NC(=O)CCn2ccc3ccncc32)c(C)c1 [CBK282860],74.0742
14,CN1CCC(Oc2nc3cc(Cl)c(Cl)cc3nc2N2CCCC2)CC1 [CBK115290],91.5012
15,CCOc1cc(-c2noc(CCC(=O)N3CCN(C)CC3)n2)ccc1OC [CBK269513],81.7733
16,Nc1c(C(=O)NCc2ccccc2)c2nc3ccccc3nc2n1CCO [CBK267201],87.9886
17,CC(=O)c1ccc(-c2nccnc2NCc2ccc(C(F)(F)F)cc2)s1 [CBK037983],67.9489
18,C[C@H](c1ccccc1)n1c(=O)[nH]c2ncc(-c3cccc(/C=C/C(=O)O)c3)nc21 [CBK064983],66.8457
19,CC(=O)Nc1ccc(S(=O)(=O)Oc2ccc(C3C4=C(CC(C)(C)CC4=O)N=C4c5ccccc5C(=O)C43)cc2)cc1 (stereo not drawn) [CBK262964],68.1006
20,CCOC(=O)c1c(-c2ccc(Cl)cc2)csc1NC(=O)CCCC(=O)O [CBK296929],92.5199
21,Cn1c2ccccc2c2nnc(SCCCC(=O)c3ccc(F)cc3)nc21 [CBK268830],99.8086
22,O=C(CN1CCN(c2ccc([N+](=O)[O-])cn2)CC1)Nc1ccc2c(c1)OCO2 [CBK074679],93.947
23,O=C1C(C2CCN(Cc3ccc4ncccc4c3)CC2)CC=CCN1Cc1ccccc1 (stereo not drawn) [CBK286269],81.5484
24,CN(CCc1cccnc1)CC(=O)Nc1cccc(Cl)c1 [CBK304108],110.521
25,NC(Cc1ccccc1)CN(CC1(c2ccc(Cl)cc2)CC1)C(=O)Nc1ccc2c(c1)OCO2 (stereo not drawn) [CBK002342C],25.7017
26,CCCS(=O)(=O)c1ccc(NC(=O)Nc2ccc(Cl)cc2Cl)cc1 [CBK008564],50.8573

row,SMILES,% of control remaining
1,CCCC(C(=O)NC(C)(C)CN1CCCCC1)n1nc(C)cc1C (stereo not drawn) [CBK282061],142.021
2,O=C(c1ccccn1)N(CCc1ccccc1)c1nc2ccccc2s1 [CBK295151],100.53
3,Cc1onc(-c2ccccc2)c1CNC(=O)/C=C/c1ccc2c(c1)OCO2 [CBK144085],101.997
4,CCCC(=O)Nc1ccc2c(c1)nc1n2CCN(Cc2ccccc2)C1 [CBK267129],101.611
5,CC(C)(C)OC(=O)NC(C)(C)C(=O)N1CC(C(=O)O)C(c2cc3ccccc3o2)C1 (stereo not drawn) [CBK003236],123.937
6,CCNC(=S)N(CCc1ccccc1)C1CC(=O)N(c2ccc(F)cc2)C1=O (stereo not drawn) [CBK262941],81.8654
7,Cc1cc(C)n(CCC(=O)NCC(c2ccccn2)N2CCOCC2)n1 (stereo not drawn) [CBK307396],54.614
8,CCOC(=O)Cn1c(C)nc(C)cc1=O [CBK012419],81.5005
9,Cn1c(=O)n(C)c2cc(S(=O)(=O)NCCC(=O)O)ccc21 [CBK267565],96.2017
10,COCC(=O)N1c2ccccc2CC[C@@H]1C(=O)OC [CBK285472],74.8451
11,O=C1CC(c2ccccc2)CC(=O)N1c1ccc(N2CCOCC2)cc1 [CBK291191],103.578
12,O=S(=O)([O-])c1cc(S(=O)(=O)O)ccc1Nc1cc2c(nc3ccccc3[n+]2-c2ccccc2)c2ccccc12 [CBK260997N],53.3668
13,CN1C(=O)COc2ccccc2CCCC[C@@H]2[C@H]1CCCN2C(=O)c1cc(=O)[nH]c(=O)[nH]1 [CBK292110],92.8844
14,COc1cc(CN2CCC3(CC2)CN(CCO)c2ccccc23)cc(OC)c1OC [CBK131524],78.6151
15,Clc1cncc(-c2cc3ccccc3[nH]2)n1 [CBK154865],90.732
16,C#CCNC(=O)CC[C@H]1CNC(=O)[C@@H]2[C@@H](CCN2Cc2ccccc2)N1C [CBK289034],117.181
17,Nc1nc(SCc2nnc(S)n2-c2ccccc2)nc2sc3c(c12)CCC3 [CBK301216K],68.7979
18,CCN(CC)Cc1c(O)ccc2cc(-c3nc4ccccc4[nH]3)c(=O)oc12 [CBK263824],105.225
19,O=C(C[n+]1ccc(CCSCc2ccc3c4c(cccc24)CC3)cc1)c1ccc2c3c(cccc13)CC2 [CBK260881B],59.2239
20,O=C(NCC1COc2ccccc2O1)N1CCCC(CO)C1 (stereo not drawn) [CBK156030],99.6252
21,CC(C)(C)c1cc(C(=O)O)c(CN2CCOCC2)o1 [CBK264052],98.1342
22,CC(Cc1ccccn1)NC(=O)C1CC2C=CC1C21CC1 (stereo not drawn) [CBK282070],80.2418
23,Cc1cc(NC(=O)C(C)C)nc2c1c(=O)oc1ccccc12 [CBK287441],106.483
24,Nc1nc(-n2cnnc2)nn1-c1ccccc1 [CBK265015],93.8483
25,O=C(NC1(c2ccc(F)cc2)CCCC1)c1cnccn1 [CBK283595],100.852
26,COc1ccc2nc(NC(=N)NC(=S)Nc3ccc(Cl)cc3)nc(C)c2c1 [CBK266677],72.3185
